Laboratory results as given in the supplement of paper PMC3334620.
In all, about 33,000 sequences were measured (“E-score (-0.5 to 0.5)”: median about -0.035, highest 2% from about 0.34 on). This is one part of the list.

Biological target: T1, Mot3 (UniProt P54785)
T1 sequence: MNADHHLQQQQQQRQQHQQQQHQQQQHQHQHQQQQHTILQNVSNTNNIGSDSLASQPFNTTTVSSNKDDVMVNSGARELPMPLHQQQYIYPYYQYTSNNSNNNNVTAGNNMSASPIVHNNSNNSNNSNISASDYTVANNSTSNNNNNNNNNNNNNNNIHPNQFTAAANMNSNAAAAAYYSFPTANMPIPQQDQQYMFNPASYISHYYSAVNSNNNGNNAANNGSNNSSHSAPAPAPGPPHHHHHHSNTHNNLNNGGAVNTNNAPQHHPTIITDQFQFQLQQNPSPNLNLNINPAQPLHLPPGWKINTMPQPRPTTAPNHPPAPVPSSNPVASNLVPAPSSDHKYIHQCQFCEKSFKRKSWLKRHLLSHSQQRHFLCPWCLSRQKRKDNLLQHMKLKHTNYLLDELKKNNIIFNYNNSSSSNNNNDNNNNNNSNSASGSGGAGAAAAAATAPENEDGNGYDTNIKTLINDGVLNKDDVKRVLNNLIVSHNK
Assay: PBM E-score (8-mer binding enrichment) (E-score (-0.5 to 0.5)); higher = stronger / more preferred TF binding; most listed sequences are background and not binding sites
Conditions: protein concentration: 200 nM; construct: GST-full length
Method in brief: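 Each ungapped eight-base word and its reverse complement, pooled, received an E-score from the Universal PBM Analysis Suite. Underlying scans, normalised with masliner, recorded fluorescent anti-GST bound to GST-tagged yeast transcription factors. These were applied at about 100-200 nM to universal all-10-mer Agilent arrays double-stranded by primer extension.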

Sequence	PBM E-score
CCGACACA	-0.042
CACTCACA	-0.159
AGGTCCAT	0.0126
TCGCTAAA	0.0723
ACTGTTCA	-0.094
AGCGTTCA	-0.207
GGCAAACC	0.102
TAACCTCA	-0.0342
GCGGTGAA	-0.274
AAATCTGA	-0.0381
AGCTATGA	-0.185
CATCGGAC	-0.171
CACGTATA	0.18
ATTAAGCG	-0.0548
CCTGGGCA	-0.218
ACGTCTAT	-0.151
CGTCCGGA	-0.085
CATACCTC	0.0531
CCCCATGA	-0.11
AGAAAACG	0.11
GGACTCCA	-0.162
CCATCAAG	-0.111

Sequence	PBM E-score
ACCATCCA	-0.0488
ATCAGGCA	0.481
ACCTCTCT	-0.236
AGCCTGAC	-0.118
GCATGTAA	0.41
ACTAAAGC	0.0721
AAAGCGTA	0.0441
GCACGATA	0.0959
CAATCTGG	0.12
TAGATCAA	0.127
CACATTAA	0.2
AAAGTGAT	0.0249
GACCCACC	-0.306
AACGCTCC	-0.0471
GATACCCA	-0.0774
ACTCATCC	-0.106
GCTACGAA	-0.025
ATGATTGG	-0.122
AAACAGCC	-0.0389
AAAGGTAG	-0.135
CTGCCCCC	-0.194
CTGACGCC	-0.161

Sequence	PBM E-score
ATCCCTAG	-0.00685
CACTGAAC	0.0593
ACGCGGTC	0.175
ACCACCTA	-0.147
CGCGGCTA	-0.0609
CGGAGTCC	-0.101
GCATTGCA	-0.0064
AAGGGCAC	0.277
ACGCAACC	0.075
ACTCATAA	-0.0862
CTCTAAAG	-0.0723
AGCTCATG	-0.063
CCAAATAG	0.00768
GAGGTATC	-0.119
ATACTGAC	-0.00434
TCGAACGA	-0.132
CTGAAAAC	-0.00504
CATAAATA	0.0659
CGGTGTAC	0.0428
CCACTAGA	-0.138
CGCCCCAC	-0.243
AGCTTGCC	0.318

Sequence	PBM E-score
AGGACTCC	-0.257
AACGAGCC	0.0554
GCGATGGA	-0.19
AGTATATA	0.117
CTTGCCTC	0.425
ATGCCCTA	-0.304
CCTCTTCG	-0.175
ACGTGGAG	-0.00647
AGACTGTC	-0.129
CCGGCTAC	-0.218
CCCACGAG	-0.293
GAGGTCTA	-0.267
ACCGTGTG	0.175
ACTGTCAG	-0.032
CGCAATCC	-0.0355
AATTACTC	0.295
GTTAGGCA	0.454
ACCCCTCT	-0.0858
CGGCTTTC	-0.107
AGCTAGAG	-0.0566
